B1: CPEB3 Ribozyme (parent)
chain: UAACAGGGGGCCACAGCAGAAGCGUUCACGUCGCAGCCCCUGUCAGAUUCUGGUGAAUCUGCGAAUUCUGCUGUAUAUCUC

Read counts are not given, so values of variants with three or more changes are uncertain.

The data set covers variants of B1. The data set is described as follows: self-cleavage, relative activity (ratio to wild type); higher = more cleavage; in vitro, sequencing. The essentials:
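Barcoded CPEB3 ribozyme mutants, produced by rounds of error-prone PCR, self-cleaved while being transcribed with T7 RNA polymerase for 5 hours at 37°C and during a subsequent 15 min DNase I step before EDTA was added. Sequencing of template-switched cDNA on Illumina gave cleaved and total reads, and DNA sequencing assigned barcodes to variants. Each variant's relative activity is its cleaved/total read fraction divided by the unmutated ribozyme's fraction, averaged across three batches. A variant needed a minimum of 5 reads.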
For A18U G19C U26C U72A, the self-cleavage was found to be 0.07.

Consider G19U A28U U60A, for which the self-cleavage amounted to 0.1. Consider G19A G30U C79U, for which the self-cleavage amounted to 0.17. As for A18U U26C U41A, the self-cleavage came to 0.34. Regarding A20C C34U A77U, the self-cleavage amounted to 0.12. A18U U54C C68A: the self-cleavage was found to be 0.22. A18U G33A U43C G53A A56G U74C A77U: the self-cleavage worked out at 0.04. On to G19A A28G G52A, for which the self-cleavage was 0.13. For the variant A18U U26C A28U U31C, the self-cleavage is 0.21. Turning to G19A U25C U41C U72C, the self-cleavage turned out to be 0.22.

Regarding G19A A21G C23U A28G U69C, the self-cleavage was determined as 0.06. As to A18U C40G U60C C62G, the self-cleavage turned out to be 0.09. Turning to G19U U41A U69A, the self-cleavage is 0.11. Regarding A18U U48C U60A, the self-cleavage stood at 0.53. Consider G19U A28U A35G U43C U78A, for which the self-cleavage came out at 0.07. Turning to A20C U25C U69A U72A, the self-cleavage came out at 0.05. For the variant G19C C32U U48C U58C U72C A75U, the self-cleavage stood at 0.08. A18U G33A A47C A57G: the self-cleavage amounted to 0.07. For G19C A28G U41C A45G, the self-cleavage is 0.16. Turning to A20C A21G A28G, the self-cleavage amounted to 0.38. In the case of A18U U25C U26G U69G it was 0.34; in that of A20C U26C U69C, 0.22; in that of A18U U25C A28G U31C U43C A57G A65U, 0.12. As for G19C U31C U60C, the figure is 0.04; as for A18U U31A U66C C68U U80C, 0.33. As for A18U U31C A45U U49C, the self-cleavage is 0.18. As for A18U G24A G42U A57G, the self-cleavage came out at 0.16. As for A20C A45C A65G U76C, the self-cleavage is 0.16. In the case of A18U U41A U58A G70A, the self-cleavage came to 0.16. Consider G19A U43A U54C, for which the self-cleavage was 0.25. Turning to G19A C32U U54C A65G U80A, the self-cleavage was 0.08. As for G19A U26C U31C A35G, the self-cleavage was 0.14.

Regarding G19U U25A C27U A45U A57G, the self-cleavage was 0.05. In the case of A18U G24A A35U U67C U72C, the self-cleavage amounted to 0.06. As for A18U U60C U69C U72A A75G, the figure is 0.2. In the case of A20C U25C A35U G46C it was 0.06. For the variant G19U A35U A47G, the self-cleavage was 0.2. G19A U26C G36C G52A A57G U67C U80C: the self-cleavage was determined as 0.06. For the variant A18U U31C C39U A45G, the self-cleavage was found to be 0.06.

Consider A20C A45G A56U U80C, for which the self-cleavage came to 0.39. As to A18U U25C A45U U78C, the self-cleavage came out at 0.57. As to G19A A21G U31C A47U U72A U74C, the self-cleavage was determined as 0.05. For the variant A18U U25C G30A C39A U74C A75G, the self-cleavage came to 0.09. For G19A A28G A47U A57G U60A A77U U78C, the self-cleavage amounted to 0.06. As for A18U U43C U69C A75U, the self-cleavage turned out to be 0.12.

For the variant G19A U67C U72A, the self-cleavage came out at 0.11.

As to A18U U31A A45G, the self-cleavage came out at 0.15. For the variant G19A A21G U41A A75G, the self-cleavage was found to be 0.08. As to G19U G33U A45G, the self-cleavage came to 0.27.

A18U U43A U51A U60G C62U U67C U74C: the self-cleavage worked out at 0.45. A18U U26C A47U: the self-cleavage was 0.08. In the case of G19A A21G U43C A45G U60C U78A, the self-cleavage is 0.15.

On to G19U G55A A65U C68U A77U U78C, for which the self-cleavage is 0.08. For A18U U31C U67G U76C, the self-cleavage worked out at 0.18. In the case of G19C C37U U41A, the self-cleavage is 0.09. In the case of A18U U41A U49A G53A, the self-cleavage turned out to be 0.09.

Regarding G19U A57G U60A U67C, the self-cleavage stood at 0.07. On to G19U U54A A56G, for which the self-cleavage came to 1.01.

Turning to G19C U43C U58G U80C, the self-cleavage was found to be 0.06. As for A18U U31C U54C G73U, the figure is 0.24; as for A20C A45C A65G U76C A77G, 0.05.

As for A20C U48C C50A U60C U72A, the self-cleavage stood at 0.23. In the case of A18U G19A A35C U43C U58C, the self-cleavage was 0.11. As for G19U U43C A75U, the figure is 0.19; as for A18U U26A A77U, 0.28; as for A18U U26C A64G U66C U67C, 0.06. Take G19U U49C G70A: the self-cleavage was determined as 0.53. Regarding A18U U43C U69C U80A, the self-cleavage turned out to be 0.25.

For A18U U51C U69A A75G, the self-cleavage was determined as 0.99.

Consider G19U U26C U41A, for which the self-cleavage amounted to 0.1. As for G19U U25C U31C A64G A65U, the self-cleavage is 0.1. As to A18U U26A A35U A47G A75C, the self-cleavage amounted to 0.14. As for G19C C32G U78C, the figure is 0.06; as for A18U U25C U41G, 0.45; as for A18U U25C U41C, 0.27.

As for G19A A47U A64U A75U, the self-cleavage was determined as 0.13. For A18U G52A C62G, the self-cleavage worked out at 0.1.

In the case of A18U U51A U72A, the self-cleavage is 0.17. As for A18U U48C U67A U74C, the self-cleavage is 0.21. On to A18U G22U G52C U72C, for which the self-cleavage was 0.24. A18U U25C A65C U74A: the self-cleavage was 0.08. Regarding A18U U31C U41A U58C G73A A75G, the self-cleavage came to 0.06. On to G19A U25G U43C A57U U67C U80C, for which the self-cleavage was 0.06. As for G19C U51C C62U A64U, the figure is 0.16; as for G19A U25C U54C A64U U74C, 0.06; as for G19U A45G U54C U66C, 0.19. Regarding A18U U43C U48C, the self-cleavage came out at 0.13. In the case of G19C C44A U72C U80C it was 0.07; in that of A18U U41G U43C A64G U66C U80C, 0.13.

In the case of A18U U43C U80C, the self-cleavage came out at 0.35. Turning to G19A U54C U66C, the self-cleavage stood at 0.09. Turning to A18U G19A U72C, the self-cleavage was 0.42.

G19A U54C U72A: the self-cleavage was 0.09. As for A18U U25C U31C U43C U48C U80C, the figure is 0.05; as for G19C A20G A35C A45C U54A, 0.17; as for G19U A21G U43C G55A A57G U58A, 0.15. A18U U26A A35G C37A: the self-cleavage stood at 0.12. Take A18U U49C A56G U74A: the self-cleavage came out at 0.67.

For A18U U41A U72A U78A U80C, the self-cleavage was determined as 0.08.

As to A20C G22U C27G U43A U80A, the self-cleavage was determined as 0.06. As for A20C U26A U48C U66C, the self-cleavage is 0.24. Consider A18U U51C U66C, for which the self-cleavage worked out at 0.46. Consider G19A A20U A21G C34A A45G U60C U72A, for which the self-cleavage was determined as 0.11. Take G19U G33A C37G U41C U80C: the self-cleavage is 0.06. For the variant A18U U25C A45G A56C, the self-cleavage worked out at 0.38. Turning to A18U U31A A47G U51C G63U, the self-cleavage was 0.39. As for A18U U25C G42A C50A A57G, the figure is 0.21. With A18U U54C C71U U72C, the self-cleavage amounted to 0.1. Consider A20C C27U A47G U49A U51C A56U, for which the self-cleavage turned out to be 0.16. Regarding A20C A21G C39A U49A, the self-cleavage came out at 0.05. With A18U U25C C39U C40U U67A A77G, the self-cleavage came to 0.11. With G19C U54A A57C U67C, the self-cleavage was found to be 0.06. For the variant A18U U41C A57U, the self-cleavage worked out at 0.31. Consider A18U U25C U31A U41A, for which the self-cleavage stood at 0.19. Turning to A18U U25C U54C U80C, the self-cleavage turned out to be 0.18.

With A18U U26C U43G A64U, the self-cleavage amounted to 0.09. Regarding A18U U49A A56G, the self-cleavage was found to be 0.2. In the case of A18U U41A C59U it was 0.2; in that of A18U U26C A28G U43C A75U, 0.07; in that of G19U U26C U69C, 0.13. Regarding A18U U51A U72C U80C, the self-cleavage came out at 0.28. Turning to G19U G24A A35U U72A, the self-cleavage was 0.28. Turning to G19C U25C A45U U60C A65C, the self-cleavage stood at 0.16.

As to G19U U60C U69C U74C A75G, the self-cleavage is 0.07. As for A20C U69C U72A, the figure is 0.09; as for A18U U25C U26C G70C U76A, 0.08. Turning to A20C U54C U72C U80A, the self-cleavage is 0.22. Turning to A20C U26C C37U, the self-cleavage was 0.08. Take G19U C38U A56G U60A: the self-cleavage was found to be 0.08.

For the variant G19U U41A U43C, the self-cleavage amounted to 0.22.

For G19A U41C C62U A65G U69C, the self-cleavage amounted to 0.29. In the case of A18U U25C U74C, the self-cleavage was determined as 0.46. On to G19A U41C U48C U51C U60C U76A, for which the self-cleavage was determined as 0.15. On to G19U U48C A56U A64U, for which the self-cleavage is 0.13.

For the variant A18U U58C U67C U80A, the self-cleavage is 0.15. In the case of A20C A21G U41G U49A it was 0.12; in that of G19C G33U U41A, 0.19; in that of A20C U26G U43G, 0.04. Turning to A18U U25C A35U A47G U66C U67G, the self-cleavage turned out to be 0.17. As to G19C A20G U51C U72C U76C, the self-cleavage amounted to 0.13. A18U C62G A64G U78C: the self-cleavage stood at 0.18.

As for A20C A28G A65U, the self-cleavage was 0.05. Regarding A18U U41A A64G A75U, the self-cleavage was 0.09. Take A20C U26C U31C U72C: the self-cleavage is 0.08. Consider A18U U26A U66C U72C, for which the self-cleavage was determined as 0.2.

As for A18U U31A U69A, the self-cleavage was found to be 0.53. For the variant G19A A35G U43C U80C, the self-cleavage came out at 0.3. For A18U U51C G63U, the self-cleavage turned out to be 0.23. Regarding A18U U25G A45G U49C, the self-cleavage is 0.15. For A18U U25C A64G, the self-cleavage came to 0.1. Regarding A18U U26A G52A U69A, the self-cleavage came to 1.08.

For G19U G24A U31C A64G U80C, the self-cleavage came to 0.09.

Turning to G19U U49C U51C, the self-cleavage turned out to be 0.09. With A18U G36A U41C C59A A77G, the self-cleavage came to 0.12.

Turning to G19A A28G U41C A56C U58A A64G A65G, the self-cleavage worked out at 0.03. For the variant A18U U25C U74A U80A, the self-cleavage is 0.05. As for A18U U49C U51A A56G U72A A77G U80C, the self-cleavage came to 0.45. On to G19A U51C U54C, for which the self-cleavage came out at 0.13.

For the variant G19C U41C U60C U66A A77C, the self-cleavage amounted to 0.11. Regarding A18U U51C U80C, the self-cleavage was found to be 0.61. In the case of A18U U51C U66C U72A U74C it was 0.19; in that of A18U G19A C68A, 0.13; in that of A18U U25G A28G U43C U51C, 0.28.

For the variant A18U U31C U43C A57G U66C, the self-cleavage was 0.14. For the variant G19A U31A U58C U72C, the self-cleavage came to 0.08.

For the variant G19U A35U A45G G46A A64G, the self-cleavage is 0.14. In the case of A18U G19U A35U A56U U74C it was 0.12.
